From PubChem BioAssay AID624417 (National Center for Advancing Translational Sciences (NCATS), 2012)
Among all 410,000 compounds or so, about 6,400 (1.6%) were called active. The shares of active, inactive and inconclusive entries below differ from those in the screen. Calls follow the shape of the dose curve; as a rule, active = well fitted inhibition curve with a large enough effect; inconclusive = small, poorly fitted or top-dose-only effect; inactive = no such curve, though single readings can be large or run the other way. Potencies of inconclusive entries are left out as doubtful fits.
% is scaled to controls: 0 for no effect and ±100 for the full control effect; potency is read from the fitted curve at half-maximal effect; tags tell the direction and shape of the fitted curve.
Also: nearly all actives have a fitted effect of over 55% in size.

Each molecule was assayed against Glucagon-like peptide 1 receptor (Homo sapiens) (UniProt P43220) (assay: qHTS of GLP-1 Receptor Inverse Agonists (Inhibition Mode)). Details: HEK293 GLP-1R CRE-luciferase, luminescence, 24 h, GLP-1R form is constitutively active; activity change, negative = inhibition: at 38.3 µM (top of the series) unless noted.
UniProt P43220, sequence (P43220 whole entry, looked up): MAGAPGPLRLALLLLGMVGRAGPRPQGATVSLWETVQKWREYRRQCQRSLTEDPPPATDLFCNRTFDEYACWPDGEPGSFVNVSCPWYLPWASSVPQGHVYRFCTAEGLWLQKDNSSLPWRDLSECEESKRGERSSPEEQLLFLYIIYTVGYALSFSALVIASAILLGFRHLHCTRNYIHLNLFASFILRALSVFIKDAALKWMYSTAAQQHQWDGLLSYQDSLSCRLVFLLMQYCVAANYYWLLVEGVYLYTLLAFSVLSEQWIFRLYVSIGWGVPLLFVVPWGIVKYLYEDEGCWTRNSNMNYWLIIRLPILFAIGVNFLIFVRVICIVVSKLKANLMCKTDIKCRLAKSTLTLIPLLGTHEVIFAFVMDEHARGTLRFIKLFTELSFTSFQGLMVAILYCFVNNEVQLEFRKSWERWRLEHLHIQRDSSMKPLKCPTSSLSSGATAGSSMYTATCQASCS
How it was run: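 qHTS in 1536-well format: reporter HEK293 cells expressing constitutive GLP-1R activity in DMEM + 10% Nu serum, 24 hr with compounds at 37 deg C, luminescence read after 12 min with detection reagent.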
CCn1c(C(=O)NC2CCC(C)CC2)cc2sccc21 (centres undefined) was tested, and the Potency was inconclusive [inhibitor, single point]. In the case of Cc1ccccc1C(=O)Nc1nnc(S(=O)(=O)N2CCCCCC2)s1, the Potency is reported as inconclusive [inhibitor, single point]. With O=C(CN1CCc2cc3c(cc2C1)OCCCO3)Nc1ccc(F)cc1 the Potency was inconclusive [inhibitor, single point]. With CN(C)C(CNc1ccc(C(F)(F)F)cn1)c1ccccc1 (centres undefined) the Potency was inconclusive [inhibitor, single point]. In the case of O=C1C=C(Nc2ccccc2)C(=O)c2ccccc21, the Potency is reported as “inactive”. For Cc1cc(O)c(C(C)C)cc1C1(c2cc(C(C)C)c(O)cc2C)OC(=O)c2ccccc21, the Potency was inconclusive [inhibitor, partial curve, poor fit]. In the case of CCOC(=O)C1Oc2ccccc2C(c2ccc(C)cc2)=C1C(=O)OC (centres undefined), the Potency is reported as inconclusive [inhibitor, partial curve, poor fit]. In the case of CCCn1c(=O)c2sccc2n2c(CCCC(=O)Nc3cccc(CC)c3)nnc12, the Potency is reported as “inactive”. Cn1cc(-c2cccc(Cl)c2)cc(C#N)c1=O was tested, and the activity change, negative = inhibition was inactive: -9.26% [at 7.66 µM]. For CCOc1ccc(C2c3[nH]c4ccccc4c3CCN2CCCn2cccn2)cc1 (centres undefined), the Potency was inconclusive [inhibitor, partial curve, poor fit]. In the case of O=C(NCCc1cccc(C(F)(F)F)c1)C1CCC(=O)N(CCc2cccc(F)c2)C1 (centres undefined), the Potency is reported as inconclusive [inhibitor, partial curve, poor fit]. For COCCCNC(=O)CSc1nc(-c2ccccc2)[nH]c1-c1ccc(C)cc1, the Potency was “inactive”. In the case of CCCc1ccc(OCCNC(=O)C2CCCCC2)cc1, the Potency is reported as inconclusive [inhibitor, partial curve, poor fit]. With CCCCCCN1C(=O)CC(NC(=O)OCC2c3ccccc3-c3ccccc32)C/C=C\C1C(C)C (centres undefined) the Potency was inconclusive [inhibitor, single point]. With O=C(NCc1ccccc1Br)c1cccs1 the Potency was “inactive”. In the case of CCCCNC(=O)c1nc(C2CCN(S(=O)(=O)c3ccc(OC(F)(F)F)cc3)CC2)oc1-c1ccccc1, the Potency is reported as “inactive”. With CCN(CC)c1ccc(C(=O)OCC(=O)Nc2cccc(S(=O)(=O)NC3=NCCCCC3)c2)cc1 the Potency was inconclusive [inhibitor, partial curve, poor fit]. COc1ccc(-c2cnc(C)o2)cc1S(=O)(=O)Nc1ccc(C)c(N(C)C)c1 was tested, and the Potency was “inactive”. With COc1cccc(NC(=S)N(CCc2c(C)[nH]c3ccc(C)cc23)Cc2cccs2)c1 the Potency was inconclusive [inhibitor, partial curve, poor fit].
